# Measurements: paper PMC4336329 (PLoS ONE, 2015)
# Out of some 310,000 compounds screened, about 2,200 (0.71%) showed an effect of 50% or more. The effect is printed as a negative number. This is one part of the list.
# Biological target: human ether-à-go-go-related gene (hERG) potassium channel (human, UniProt Q12809)
# Test: primary screen, population patch clamp on CHO cells stably expressing hERG
# human ether-à-go-go-related gene (hERG) potassium channel, sequence (Q12809 whole entry, looked up): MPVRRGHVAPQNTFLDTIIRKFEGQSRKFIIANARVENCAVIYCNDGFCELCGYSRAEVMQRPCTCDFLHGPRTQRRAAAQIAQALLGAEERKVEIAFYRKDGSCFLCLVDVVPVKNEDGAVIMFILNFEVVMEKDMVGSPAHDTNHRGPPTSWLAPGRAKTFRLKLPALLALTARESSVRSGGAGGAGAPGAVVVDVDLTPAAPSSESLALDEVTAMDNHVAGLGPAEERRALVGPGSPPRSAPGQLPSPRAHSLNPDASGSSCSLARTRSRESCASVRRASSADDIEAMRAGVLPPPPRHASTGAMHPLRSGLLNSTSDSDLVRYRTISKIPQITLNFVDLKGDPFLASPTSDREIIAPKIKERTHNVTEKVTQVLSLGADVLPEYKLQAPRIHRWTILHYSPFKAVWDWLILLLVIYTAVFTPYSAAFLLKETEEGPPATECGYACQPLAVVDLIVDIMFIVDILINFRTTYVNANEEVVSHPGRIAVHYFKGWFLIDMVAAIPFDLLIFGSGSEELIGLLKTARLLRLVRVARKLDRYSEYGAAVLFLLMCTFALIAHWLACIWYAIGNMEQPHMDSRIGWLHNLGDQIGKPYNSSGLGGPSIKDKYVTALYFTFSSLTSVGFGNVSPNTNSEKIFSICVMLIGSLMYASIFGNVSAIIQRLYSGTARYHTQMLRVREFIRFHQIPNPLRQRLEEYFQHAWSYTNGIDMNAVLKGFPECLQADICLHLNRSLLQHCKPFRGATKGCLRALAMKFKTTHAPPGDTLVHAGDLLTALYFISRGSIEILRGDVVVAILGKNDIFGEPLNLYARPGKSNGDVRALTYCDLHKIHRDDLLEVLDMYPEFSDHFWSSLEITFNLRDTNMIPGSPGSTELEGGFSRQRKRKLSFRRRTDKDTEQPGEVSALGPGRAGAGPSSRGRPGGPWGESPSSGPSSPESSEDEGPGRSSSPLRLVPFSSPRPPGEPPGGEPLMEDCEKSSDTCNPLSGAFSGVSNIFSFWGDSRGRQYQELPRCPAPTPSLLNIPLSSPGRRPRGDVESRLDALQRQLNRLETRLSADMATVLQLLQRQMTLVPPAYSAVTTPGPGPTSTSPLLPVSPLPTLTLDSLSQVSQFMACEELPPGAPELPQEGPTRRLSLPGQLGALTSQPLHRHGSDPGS
row,SMILES,"hERG current change (%, negative = inhibition) at 1uM"
1,Cc1ccc(N2CC(C(=O)NCc3cccnc3)CC2=O)cc1 (stereo not drawn),3.68%
2,CC(NC(=O)CN(C)S(=O)(=O)c1ccc2c(c1)c(=O)n(C)c(=O)n2C)c1ccccc1 (stereo not drawn),-1.26%
3,COc1ccccc1NC(=O)CSc1nnc(C)n1CCc1ccccc1,2.51%
4,Cc1ccccc1N(CC(=O)NC(C)(C)C)C(=O)CS(=O)CC(=O)Nc1ccc2c(c1)OCO2 (stereo not drawn),14.7%
5,CCOC(=O)Nc1cccnc1Sc1ccc(Cl)cc1,7.9%
6,NS(=O)(=O)c1cccc(NS(=O)(=O)c2ccc(/C=C/C(=O)OCC(=O)c3ccc(Br)cc3)cc2)c1,13.5%
7,COc1ccc(CNc2cccc3[nH]c(C(F)(F)F)nc23)cc1.Cl,4.62%
8,CCN1C(N(C)C)=NC[C@@H]1Cc1ccccc1,6.6%
9,COc1ccc(Nc2nc(C(=O)N3CCc4cc(OC)c(OC)cc4C3)cs2)cc1,0.6%
10,CC(C)=Cc1c(O)nc2ccccn2c1=O,12.1%
11,Cc1ccc(Sc2nc([N+](=O)[O-])nn2C)cc1,11.2%
12,O=C(N/N=C/c1ccc2cccnc2c1)c1ccco1,13.2%
13,Cc1ccc2nc(N/N=C\c3ccc([N+](=O)[O-])o3)nc(-c3ccccc3)c2c1,-35.4%
14,CC(NC(=O)Nc1ccccn1)N1C(=O)C2C3C=CC(C3)C2C1=O (stereo not drawn),3.6%
15,C/C(=N\OC(=O)c1ccc(F)cc1)c1nccs1,4.24%
16,O=C(Nc1ccc(CN2CCCCC2)cc1)Nc1ccc(Br)cc1Cl,8.63%
17,CCN1CCN(C(=O)C2CCCN(S(=O)(=O)c3ccc(OC)c(OC)c3)C2)CC1 (stereo not drawn),14.6%
18,COc1ccc(/C=C/C(=O)NC(=S)NNC(=O)c2ccco2)cc1,7.53%
19,O=C1c2ccc(Oc3ccc([N+](=O)[O-])cc3)cc2C(=O)N1c1ccncc1,6.69%
20,Cc1nc(Nc2ccccc2O)c2oc3ccccc3c2n1,14.4%
21,COC(=O)c1ccc(NC(=O)CN2CCN(CC#N)CC2)cc1.O=C(O)C(=O)O,10.7%
22,Cc1ccc(C(=O)NCCc2cccc(Cl)c2)cc1[N+](=O)[O-],5.44%
23,NC(=O)CSc1nc(-c2ccccc2)c(-c2ccccc2)o1,8.48%
24,CC(C)CC(COCc1ccc(Cl)cc1)N1CCN(C(=O)c2cccc(C(F)(F)F)c2)CCC1=O (stereo not drawn),20.5%
